For some of these results: The strong results were mostly taken out for another list; the other results follow. The entries are a selection whose mix differs from that of the whole data set.

What is called inhibition is the relative decrease from the control value, in per cent.

The target of one assay is T1, Serine/threonine-protein kinase Sgk3 (Homo sapiens) (UniProt Q96BR1).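 Note: each value is a mean of replicate inhibition readings.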
T1 sequence (whole entry): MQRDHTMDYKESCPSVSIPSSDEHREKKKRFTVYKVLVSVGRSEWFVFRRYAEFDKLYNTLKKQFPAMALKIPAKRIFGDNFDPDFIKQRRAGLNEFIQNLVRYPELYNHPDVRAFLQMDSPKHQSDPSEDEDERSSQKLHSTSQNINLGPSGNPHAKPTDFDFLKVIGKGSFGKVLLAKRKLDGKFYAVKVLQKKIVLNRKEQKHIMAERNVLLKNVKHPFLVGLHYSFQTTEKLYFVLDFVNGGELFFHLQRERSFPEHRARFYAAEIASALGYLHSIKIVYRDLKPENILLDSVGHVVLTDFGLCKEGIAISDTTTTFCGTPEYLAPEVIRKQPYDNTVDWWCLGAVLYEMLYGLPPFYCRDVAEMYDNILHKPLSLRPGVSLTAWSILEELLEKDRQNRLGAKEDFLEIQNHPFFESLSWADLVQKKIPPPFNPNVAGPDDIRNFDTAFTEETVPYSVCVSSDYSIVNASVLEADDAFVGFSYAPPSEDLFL
Particulars: at 1 µM.
For `CS(=O)(=O)c1ccc(Oc2nccc(-c3c(-c4ccc(F)cc4)ncn3C3CCNCC3)n2)cc1`, the inhibition is 4.22%.

For `O=C1NC(=O)C(c2ccccc2Cl)=C1Nc1cc(Cl)c(O)c(Cl)c1`, the inhibition was determined as 3.81%.

Consider `CC(C)(C)c1ccc(Oc2nccc(-c3c(-c4ccc(F)cc4)ncn3C3CCNCC3)n2)cc1`, for which the inhibition stood at 1.86%.

As to `COc1ccccc1Oc1nccc(-c2c(-c3ccc(F)cc3)ncn2C2CCNCC2)n1`, the inhibition came to 2.78%.

In the case of `Fc1ccc(-c2ncn(C3CCNCC3)c2-c2ccnc(Oc3ccc(Cl)cc3)n2)cc1`, the inhibition was -0.05%.

Turning to `O=C1NC(=O)C(c2ccccc2)=C1Nc1ccccc1`, the inhibition worked out at 5.81%.

Consider `NC(=O)CCc1ccccc1Oc1nccc(-c2c(-c3ccc(F)cc3)ncn2C2CCNCC2)n1`, for which the inhibition was found to be 1.01%.

Consider `O=C(O)c1ccc(Oc2nccc(-c3c(-c4ccc(F)cc4)ncn3C3CCNCC3)n2)cc1`, for which the inhibition was 4.11%.

Regarding `Fc1ccc(-c2ncn(C3CCNCC3)c2-c2ccnc(Oc3cccc(C(F)(F)F)c3)n2)cc1`, the inhibition worked out at 5.02%.

With `Fc1ccc(Oc2nccc(-c3c(-c4ccc(F)cc4)ncn3C3CCNCC3)n2)cc1`, the inhibition worked out at 2.8%.

As for `O=C1NC(=O)C(c2cccc([N+](=O)[O-])c2)=C1Nc1cc(Cl)c(O)c(Cl)c1`, the inhibition is 1.23%.

`COc1ccccc1C1=C(Nc2ccccc2)C(=O)NC1=O`: the inhibition was 5.07%.

For the compound `Cc1cccc(Oc2nccc(-c3c(-c4ccc(F)cc4)ncn3C3CCNCC3)n2)c1C`, the inhibition worked out at 2.42%.

`Fc1ccc(-c2ncn(C3CCNCC3)c2-c2ccnc(Oc3cccc(F)c3)n2)cc1`: the inhibition was 4.85%.

A further assay deals with 5'-AMP-activated protein kinase catalytic subunit alpha-1 (Homo sapiens) (UniProt Q13131). The settings on record: at 0.1 µM.
Chain of UniProt Q13131 (Q13131 whole entry, looked up): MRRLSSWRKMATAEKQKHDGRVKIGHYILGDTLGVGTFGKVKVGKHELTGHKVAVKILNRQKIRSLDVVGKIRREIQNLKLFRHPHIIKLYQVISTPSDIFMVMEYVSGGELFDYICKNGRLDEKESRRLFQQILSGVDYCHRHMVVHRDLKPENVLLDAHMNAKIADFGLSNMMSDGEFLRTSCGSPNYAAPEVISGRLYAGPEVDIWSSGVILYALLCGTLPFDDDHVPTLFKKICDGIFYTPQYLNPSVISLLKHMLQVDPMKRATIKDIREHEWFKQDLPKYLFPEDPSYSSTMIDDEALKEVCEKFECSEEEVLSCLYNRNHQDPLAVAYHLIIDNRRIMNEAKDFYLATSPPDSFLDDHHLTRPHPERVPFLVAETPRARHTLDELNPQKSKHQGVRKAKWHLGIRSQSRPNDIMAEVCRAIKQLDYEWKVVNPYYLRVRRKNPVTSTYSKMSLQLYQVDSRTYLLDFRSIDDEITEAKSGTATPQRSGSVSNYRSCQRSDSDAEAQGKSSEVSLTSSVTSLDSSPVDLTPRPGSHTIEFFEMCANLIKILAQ
For `CS(=O)(=O)c1ccc(Oc2nccc(-c3c(-c4ccc(F)cc4)ncn3C3CCNCC3)n2)cc1`, the inhibition turned out to be 2.41%.

For `O=C1NC(=O)C(c2ccccc2Cl)=C1Nc1cc(Cl)c(O)c(Cl)c1`, the inhibition stood at 1.96%.

Consider `CC(C)(C)c1ccc(Oc2nccc(-c3c(-c4ccc(F)cc4)ncn3C3CCNCC3)n2)cc1`, for which the inhibition came to 2.05%.

As for `COc1ccccc1Oc1nccc(-c2c(-c3ccc(F)cc3)ncn2C2CCNCC2)n1`, the inhibition amounted to 3.09%.

Take `Fc1ccc(-c2ncn(C3CCNCC3)c2-c2ccnc(Oc3ccc(Cl)cc3)n2)cc1`: the inhibition is 10%.

With `O=C1NC(=O)C(c2ccccc2)=C1Nc1ccccc1`, the inhibition stood at 4.95%.

As for `NC(=O)CCc1ccccc1Oc1nccc(-c2c(-c3ccc(F)cc3)ncn2C2CCNCC2)n1`, the inhibition came to 0.72%.

As for `O=C(O)c1ccc(Oc2nccc(-c3c(-c4ccc(F)cc4)ncn3C3CCNCC3)n2)cc1`, the inhibition is 1.57%.

In the case of `Fc1ccc(-c2ncn(C3CCNCC3)c2-c2ccnc(Oc3cccc(C(F)(F)F)c3)n2)cc1`, the inhibition amounted to 3.44%.

Turning to `Fc1ccc(Oc2nccc(-c3c(-c4ccc(F)cc4)ncn3C3CCNCC3)n2)cc1`, the inhibition amounted to 2.91%.

As to `O=C1NC(=O)C(c2cccc([N+](=O)[O-])c2)=C1Nc1cc(Cl)c(O)c(Cl)c1`, the inhibition was determined as 2.33%.

As to `COc1ccccc1C1=C(Nc2ccccc2)C(=O)NC1=O`, the inhibition amounted to 2.92%.

As for `Cc1cccc(Oc2nccc(-c3c(-c4ccc(F)cc4)ncn3C3CCNCC3)n2)c1C`, the inhibition is 3.33%.

Consider `Fc1ccc(-c2ncn(C3CCNCC3)c2-c2ccnc(Oc3cccc(F)c3)n2)cc1`, for which the inhibition was 1.39%.

The values are drawn from ChEMBL document CHEMBL1961873, “Compounds: GSK PKIS; Assays: Nanosyn kinase panel” (2012).
